From PubChem BioAssay AID540317 (National Center for Advancing Translational Sciences (NCATS), 2011)
Values joined by “and” are separate entries in the source; they are usually repeats but may differ in a detail not shown here. Identical values can stand only once. The campaign covered roughly 390,000 compounds. About 2,200 (0.56%) were called active. This list was built around the results that the source calls inconclusive (neither active nor inactive); the mix of calls is not that of the screen. Calls follow the shape of the dose curve; as a rule, active = well fitted inhibition curve with a large enough effect; inconclusive = small, poorly fitted or top-dose-only effect; inactive = no such curve, though single readings can be large or run the other way. A potency beside an inconclusive call is a rough fit, not a confirmed value.

biological target: Chromobox protein homolog 1 (Homo sapiens) (UniProt P83916); assay: HTS for Inhibitors of HP1-beta Chromodomain Interactions with Methylated Histone Tails; details: AlphaScreen HP1-beta / biotin-H3K9me3 peptide binding; series mostly up to 114 µM; activity change, negative = inhibition: at the top concentration; also: nearly all actives have a fitted effect of over 70% in size
Summary of the method: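 HP1-beta protein (50 nM final) preincubated 30 min at room temperature with biotinylated H3(1-18)K9me3 peptide (50 nM) in PBS pH 7.4, 0.01% Tween-20, then compound added for 30 min. AlphaScreen streptavidin donor/nickel chelate acceptor beads (10 ug/mL final), 30 min dark, luminescence read.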
Potency is read from the fitted curve at half-maximal effect; tags tell the direction and shape of the fitted curve.

Sequence of UniProt P83916 (P83916 whole entry, looked up): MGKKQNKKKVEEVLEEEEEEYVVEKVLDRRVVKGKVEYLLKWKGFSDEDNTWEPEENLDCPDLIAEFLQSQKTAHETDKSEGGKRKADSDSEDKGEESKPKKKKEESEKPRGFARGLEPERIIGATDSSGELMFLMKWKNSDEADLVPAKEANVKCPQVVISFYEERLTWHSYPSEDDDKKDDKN

Row | SMILES | Potency | activity change, negative = inhibition
1 | CC(=O)Nc1ccc(C2=NNC(=Nc3ccc(S(=O)(=O)N4CCOCC4)cc3)SC2)cc1 | inconclusive: 10 µM [inhibitor, full curve] | 
2 | CCCCSc1nnc(-c2ccc(NC(=O)CC)cc2)n1C | inconclusive: 31.6 µM [inhibitor, single point] | 
3 | Cc1nc(NCc2ccco2)c2c(C)c(C)sc2n1 | inconclusive: 14.1 µM [inhibitor, full curve, poor fit] | 
4 | CCOC(=O)c1c(C)[nH]c(C)c1S(=O)(=O)N(C)CC(=O)NCc1cccc(C)c1 |  | inactive: 14.6%
5 | CC(=O)Nc1ccccc1OCC(=O)NC1CCCCC1C (configuration not stated) |  | inactive: 17.4%
6 | CN(C)c1ccc(NC(=O)c2ccc(Cn3cc([N+](=O)[O-])cn3)cc2)cc1 | active: 44.7 µM | 
7 | O=C(NC(=S)Nc1cccc(C(F)(F)F)c1)c1ccc2nonc2c1 | inconclusive: 17.8 µM [inhibitor, full curve] | 
8 | O=C(CN1CCCCCCC1)NC(=O)NC1CCCCC1 | inconclusive: 100 µM [inhibitor, single point] | 
9 | Cc1c(CCC(=O)O)c(=O)oc2c(C)c3occ(-c4ccc(Cl)cc4)c3cc12 | inconclusive: 79.4 µM [inhibitor, single point] | 
10 | Cc1ccc(C2=N/C(=C\c3cccs3)C(=O)N2Nc2ccccc2)cc1 | inconclusive: 35.5 µM [inhibitor, partial curve] | 
11 | CN(C)c1ccc(NC(=O)COC(=O)c2cc(Cl)ccc2[N+](=O)[O-])cc1 | active: 50.1 µM | 
12 | CC(C)Oc1ccc(C(=O)N/N=C/c2ccc(-c3ccc(S(=O)(=O)Nc4ncccn4)cc3)o2)cc1 |  | inactive: -5.7%
13 | CCOc1ccc(NC(=O)CN2C(=O)COc3ccc(S(=O)(=O)Nc4ccccc4)cc32)cc1 |  | inactive: 16.2%
14 | COc1ccc(CCNC(=O)CN2CCC(C)CC2)cc1OC | inconclusive: 17.8 µM [inhibitor, full curve] | 
15 | Cc1cc(C(=O)CSc2nncs2)c(C)n1-c1ccc2c(c1)OCO2 | inconclusive: 25.1 µM [inhibitor, partial curve, poor fit] | 
16 | C=CCn1c(O)c(N=NC(=O)CNC(=O)Cc2ccccc2)c2ccccc21 |  | inactive: 47.7%
17 | CCN(CC)C(=O)CC(c1ccc(N(C)C)cc1)c1c(OC)cc(OC)c2c(-c3ccccc3)cc(=O)oc12 (configuration not stated) | inconclusive: 28.2 µM [inhibitor, full curve] and inconclusive: 20 µM [inhibitor, full curve] | 
18 | CCOC(=O)C1CCCN(Cc2ccc(OC)c(OCc3ccccc3)c2)C1 (configuration not stated) | inconclusive: 22.4 µM [inhibitor, full curve] | 
19 | O=S(=O)(c1ccccc1)c1nc(Nc2ccccc2N2CCOCC2)sc1Cl | inconclusive: 12.6 µM [inhibitor, partial curve, poor fit] | 
20 | N#Cc1ccc(-c2cccs2)nc1SCc1ccc(Cl)cc1Cl |  | inactive: 105%
21 | Cc1ccc(SCC(=O)O/N=C(\N)c2ccc([N+](=O)[O-])cc2)cc1 | inconclusive: 14.1 µM [inhibitor, partial curve, poor fit] | 
22 | COC(=O)C(NC(=O)c1ccc(F)cc1)(Nc1ncc(S(=O)(=O)c2ccc([N+](=O)[O-])cc2)s1)C(F)(F)F (configuration not stated) | inconclusive: 28.2 µM [inhibitor, partial curve] | 
23 | Nc1ccccc1Nc1cc(-c2cccc(Cl)c2)nn1-c1ccccc1 | inconclusive: 39.8 µM [inhibitor, full curve, poor fit] | 

Row | SMILES | Potency | activity change, negative = inhibition
24 | COc1cccc(N2CCN(C(=O)c3ccc(CSc4nc5ccncc5[nH]4)cc3)CC2)c1 | inconclusive: 35.5 µM [inhibitor, partial curve] | 
25 | CCCC(=O)Nc1ccc2c(c1)COC2=O | inconclusive: 89.1 µM [inhibitor, single point] | 
26 | Cc1cc(C)c(/C=C(\C#N)C(N)=S)c(C)c1 |  | inactive: 1.06%
27 | CC1=C(C)C(=O)C(CCCCC#CCCCC#CCO)=C(C)C1=O | inconclusive: 35.5 µM [inhibitor, partial curve] | 
28 | CN(C)c1ccc(C(CNS(=O)(=O)c2ccc(Cl)cc2)N2CCCC2)cc1 (configuration not stated) | inconclusive: 39.8 µM [inhibitor, partial curve] | 
29 | COc1cc(NC(=O)c2cccs2)c(C(=O)OCC(=O)NCc2ccco2)cc1OC |  | inactive: 15.5%
30 | Cc1nc(-c2ccc([N+](=O)[O-])cc2)c(-c2ccccc2)o1 | inconclusive: 56.2 µM [inhibitor, single point] | 
31 | Cc1c(CCC(=O)O)c(=O)oc2cc3occ(-c4ccc(Br)cc4)c3cc12 | inconclusive: 89.1 µM [inhibitor, partial curve, poor fit] | 
32 | c1ccc(-n2cnc3cc(NCc4ccco4)ccc32)cc1 | inconclusive: 79.4 µM [inhibitor, single point] | 
33 | CC1=C/C(=C\c2ccc(Br)o2)C(=O)O1 | inconclusive: 17.8 µM [inhibitor, full curve, poor fit] | 
34 | O=C1CC(=O)NC(SCC(=O)Nc2ccccc2[N+](=O)[O-])=N1 | inconclusive: 79.4 µM [inhibitor, partial curve] | 
35 | COc1ccc(CN2CCNC(=O)C2CC(=O)NCC2CCOCC2)c(C)c1C (configuration not stated) |  | inactive: 38.2%
36 | CCOc1ccc(C(=S)NC2CCCCC2)cc1OC | inconclusive: 17.8 µM [inhibitor, full curve] | 
37 | O=C(CCN1C(=O)/C(=C/c2ccccc2Cl)SC1=S)N1CCCC1 | inconclusive: 22.4 µM [inhibitor, single point] | 
38 | Oc1ccc(N2CCN(Cc3c(-c4ccccc4)nc4ccccn34)CC2)cc1 | inconclusive: 56.2 µM [inhibitor, partial curve, poor fit] | 
39 | O=[N+]([O-])c1ccccc1CN1CCN(Cc2ccc3ccccc3c2)CC1 | inconclusive: 14.1 µM [inhibitor, partial curve, poor fit] | 
40 | Fc1ccccc1OCCn1c(=S)[nH]c2ccccc21 |  | inactive: 32.7%
41 | S=c1[nH]nc(CCCc2n[nH]c(=S)o2)o1 | inconclusive: 79.4 µM [inhibitor, single point] | 
42 | Cc1ccc2c(c1)cc(CN(Cc1cccs1)C(=O)c1ccco1)c1nnnn12 | inconclusive: 7.94 µM [inhibitor, full curve] | 
43 | CCOc1cc(CNc2ccc(O)cc2)cc(Br)c1OCc1ccccc1 | inconclusive: 20 µM [inhibitor, full curve] | 
44 | O=C(NC1=C(Nc2ccc(Cl)cc2)C(=O)c2ccccc2C1=O)c1ccccc1 | inconclusive: 22.4 µM [inhibitor, single point] | 
45 | CC(C)CC(=O)N1CCN(S(=O)(=O)c2ccccc2)CC1 |  | inactive: 26.7%
46 | Cc1ccc(C)c(OCCSc2nnc(-c3cccnc3)n2N)c1 |  | inactive: 46%

Row | SMILES | Potency | activity change, negative = inhibition
47 | CCN(CC)Cc1oc(CO)cc(=O)c1O | inconclusive: 56.2 µM [inhibitor, partial curve] | 
48 | C[N+]1(CCOc2ccc([N+](=O)[O-])cc2)CCOCC1 | inconclusive: 89.1 µM [inhibitor, single point] | 
49 | CCCN(CCO)Cc1cccc(Cl)c1 | inconclusive: 25.1 µM [inhibitor, full curve] | 
50 | CCC(C)OC(=O)C1=C(C)NC2=C(C(=O)C(C(=O)OC)C(C)C2)C1c1ccc(N(C)C)cc1 (configuration not stated) | inconclusive: 20 µM [inhibitor, full curve, poor fit] | 
51 | CC(C)=NNc1nc(-c2ccccc2)c(C)s1 | inconclusive: 20 µM [inhibitor, full curve] | 
52 | CCOc1ccc2oc(C(=O)OC(C(=O)NC(N)=O)C(C)C)c(C)c2c1 (configuration not stated) |  | inactive: -2.06%
53 | COc1ccc(NC(=S)NC(NC(=O)c2cccc(Cl)c2)C(Cl)(Cl)Cl)c([N+](=O)[O-])c1 (configuration not stated) | inconclusive: 39.8 µM [inhibitor, single point] | 
54 | Cc1cccc(N2CCN(C(=O)c3cc4c(=O)[nH]c5ccc(C)cc5c4s3)CC2C)c1 (configuration not stated) |  | inactive: -0.0381%
55 | Cc1cc(C)cc(NC(=O)c2sc3nc[nH]c(=O)c3c2C)c1 |  | inactive: 19.5% [at 57 µM]
56 | CN1CCCN(Cc2ccc(Cl)cc2Cl)CC1 | inconclusive: 56.2 µM [inhibitor, partial curve, poor fit] | 
57 | COc1cc(OC)c(OC)cc1CNc1cc(C)ccc1OC | inconclusive: 50.1 µM [inhibitor, partial curve, poor fit] | 
58 | Nc1c(Cl)cc(-c2cn(CCC(=O)O)c(-c3ccncc3)n2)cc1Cl |  | inactive: 33.3%
59 | CCOc1ccc(/C=N/N2CCN(Cc3ccccc3)CC2)cc1 | inconclusive: 56.2 µM [inhibitor, single point] | 
60 | Cc1nn(-c2ccccc2)c(N)c1Sc1ccc([N+](=O)[O-])cc1 | inconclusive: 89.1 µM [inhibitor, partial curve, poor fit] | 
61 | COc1ccc(N2CCN(C(=O)CSc3nc4ccccc4nc3Cc3ccc(Cl)cc3)CC2)cc1 | inconclusive: 14.1 µM [inhibitor, partial curve, poor fit] | 
62 | c1ccc(-c2csc3ncn4nnnc4c23)cc1 | inconclusive: 35.5 µM [inhibitor, single point] | 
63 | Cn1c(SCCN2CCCCC2)nnc1-c1ccccc1Br | inconclusive: 14.1 µM [inhibitor, full curve, poor fit] | 
64 | CCOc1ccc(CC(=O)NCCS(=O)(=O)N2CCN(c3ccc(OC)cc3)CC2)cc1 |  | inactive: 21.6% [at 57 µM]
65 | CCn1c2ccccc2c2cc(CN3CCN(Cc4ccc(OC)c(OC)c4)CC3)ccc21 | inconclusive: 14.1 µM [inhibitor, full curve, poor fit] | 
66 | Cc1oc(-c2ccc(-c3ccccc3)cc2)nc1CN(CCO)C(C)C |  | inactive: 20.8%
67 | CCC(C)N(C(=O)CSc1nc(-c2cccs2)nc2ccccc12)C1CCS(=O)(=O)C1 (configuration not stated) |  | inactive: 10.9%
